# Measurements as given in PubChem BioAssay AID743279 (National Center for Advancing Translational Sciences (NCATS), 2014).
# Among all 360,000 compounds or so, about 17,000 (4.7%) were called active. This list was built around the results that the source calls inconclusive (neither active nor inactive); the mix of calls is not that of the screen. Cut-off read from the data, not from the text of the source: active = activity change below about -50%; inconclusive = mostly about -30% to -49%; inactive = weaker than that.
# Assay: qHTS for Inhibitors of Inflammasome Signaling: IL-1-beta AlphaLISA Primary Screen
# Settings: THP-1 LPS/ATP IL-1B secretion, 16 h; at 57.5 µM, hits give low values
# Method in brief: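 Secreted IL-1B measured by AlphaLISA bead assay after 16 h compound exposure of THP-1 cells; compounds (final up to 57.5 uM) added 1 h before LPS (250 ng/mL) and ATP (1.25 mM) stimulation; lower signal means less secretion.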
# % is set by controls: 0 for no effect and ±100 for the full control effect.
row,SMILES,activity change
1,Cc1nc2ccccc2c(=O)n1/N=C/c1ccco1,inactive: -11.9%
2,COC(=O)c1sc(N2CCN(c3ccc(Cl)cc3)CC2)nc1N,inconclusive: -44.6%
3,O=[N+]([O-])c1cc(Cl)ccc1N1CCCCC1,inconclusive: -31.1%
4,CN(CC(=O)Nc1ccc(OC(F)(F)F)cc1)C(=O)Cc1c(Cl)cccc1Cl,active: -55.2%
5,COc1cccc(C(=O)Nc2ccc3c(C)cc(=O)oc3c2)c1,inconclusive: -36.8%
6,CCN1CCN(C(=S)NCC2CCCO2)CC1 (stereo unspecified),inconclusive: -36.6%
7,CCN(CC)S(=O)(=O)c1ccc(Cl)c(C(=O)Nc2ccc(Cl)cc2[N+](=O)[O-])c1,inconclusive: -38.3%
8,O=C(CCc1nnc2ccc(N3CCCCC3)nn12)NCC1CCN(Cc2ccc(F)cc2)CC1,inconclusive: -48%
9,Cc1ccc(S(=O)(=O)N(C)c2ccc(C(=O)Nc3ccc(C)cn3)cc2)cc1,inconclusive: -41.6%
10,CCC(=O)N1CCN(c2ccc(NC(=O)c3cc4ccccc4o3)cc2Cl)CC1,active: -115%
11,Cc1nc(N)sc1N=Nc1ccc(F)cc1,inconclusive: -34.6%
12,COc1ccc(C(O)P(=O)(OCc2ccccc2)c2ccc(N(C)C)cc2)cc1 (stereo unspecified),inconclusive: -46.9%
13,CCOc1ccccc1NC(=O)/C=C/c1ccccc1[N+](=O)[O-],active: -68.6%
14,Cc1ccc(NC(=O)CN(C)C(=O)COC(=O)/C=C/c2cccs2)cc1,active: -96.5%
15,OCC1(CCOc2ccccc2)CCN(Cc2ccccc2C(F)(F)F)CC1,active: -55.1%
16,CC(=O)CCc1ccc(Oc2nc(-c3cccnc3)nc3ccccc23)cc1,inconclusive: -31.5%
17,O=C(Nc1ccc(C(F)(F)F)cc1Cl)c1ccc(Cn2cc(Br)cn2)o1,inactive: 0%
18,Brc1ccc(CNc2ccc3ncccc3c2)cc1,inactive: -12.9%
19,Cc1ccccc1NC(=O)c1ccc([N+](=O)[O-])o1,inconclusive: -50%

row,SMILES,activity change
1,CCOCC(=O)Nc1c(C(=O)Nc2ccc(OC)cc2OC)oc2ccccc12,inconclusive: -31%
2,CN(C)C1=NC[C@H](Cc2ccccc2)N1CCc1ccc(F)cc1,inconclusive: -39.4%
3,CCCOc1ccc(/C=N/Nc2ccccc2[N+](=O)[O-])c(O)c1,inactive: -7.5%
4,CCN1CCN(C(=S)Nc2ccc3nc(N4CCN(C)CC4)cc(C)c3c2)CC1,inconclusive: -39.9%
5,COc1cc(/C=C/C(=O)OC(C)C(=O)NC2CCCCC2C)cc(Cl)c1OC (stereo unspecified),inactive: 8.8%
6,c1ccc(NC2=Nc3cccc4cccc2c34)cc1,inconclusive: -34.9%
7,CCn1cc(Cl)c(C(=O)N2N=C(c3ccc4ccccc4c3)CC2c2ccccc2O)n1 (stereo unspecified),inconclusive: -39.1%
8,O=S(=O)(c1ccc(Cl)cc1)N1CCN(c2ncnc3sccc23)CC1,inconclusive: -40.9%
9,CCn1c(C)cc2c(c1=O)C(c1ccc3c(c1)OCO3)C(C#N)=C(N)O2 (stereo unspecified),inconclusive: -33.3%
10,CCOC(=O)N1CCC(N2CCN(S(=O)(=O)c3ccc(NC(C)=O)cc3)CC2)CC1,inconclusive: -44%
11,COc1ccc(C(=O)Nc2cccc(-c3ccc4nncn4n3)c2)cc1,inactive: 20.6%
12,N#C/C(=C/c1ccc(Sc2nc3ccccc3[nH]2)o1)c1cccc(Br)c1,inconclusive: -40.4%
13,Cc1cccc(-n2cc(CN(C)Cc3nccn3C)c(-c3cccc(F)c3)n2)c1,active: -61.6%
14,CCOC(=O)C1CCN(C(=O)C2(NC(=O)Nc3cccc(F)c3)CCCCC2)CC1,inconclusive: -48%
15,CC(=O)N1CCN(C(=O)c2ccc(C(=O)c3ccccc3)cc2)CC1,inactive: -11%
16,Cc1nc2ccccn2c1C(=O)N/N=C/c1ccc2c(c1)OCO2,inactive: 12.9%
17,CC(=O)Nc1ccc(NS(=O)(=O)c2cc(-c3cnc(C4CC4)o3)ccc2C)cc1,inactive: 41%
18,CC(C)(C)NC(=O)C(c1ccco1)N(Cc1ccc2c(c1)OCO2)C(=O)c1snc(C(N)=O)c1N (stereo unspecified),inconclusive: -30.1%
19,Oc1ccc(Br)cc1-c1cc(-c2ccc(Cl)cc2)n[nH]1,inactive: -14.4%

row,SMILES,activity change
1,CC(NCC(=O)Nc1cc(S(=O)(=O)N2CCOCC2)ccc1N1CCOCC1)c1ccco1 (stereo unspecified),inactive: 0%
2,CCn1c(C)nc2cc(C(=O)N/N=C/c3cccc(OC)c3O)ccc21,inactive: 166%
3,CCOC(=O)c1ccc(NC(=O)Cc2cccs2)cc1,inconclusive: -39.9%
4,Cc1nn(-c2ccccc2)c(N)c1N=Nc1ccccc1,active: -68.3%
5,N#Cc1ccc(Cn2c(-c3ccc(F)cc3)noc2=O)cc1,inactive: 12.8%
6,CC(C)(C)c1cc2cccnc2n1Cc1cccc(Cl)c1,inconclusive: -45%
7,CCCn1c(C)cc(/C=C(\C#N)C(=O)OCC(=O)N(CC)c2c(N)n(Cc3ccccc3)c(=O)[nH]c2=O)c1C,inconclusive: -44.9%
8,COc1cccc(NC(=O)CSc2nnc(-c3cccc(OC(C)C)c3)n2N)c1,inactive: -24.7%
9,CC(C)N1CCCC(C)(C(=O)Nc2nccc3ccccc23)C1 (stereo unspecified),inactive: 23.9%
10,O=C(c1cc2c(s1)CCCC2)N1CCN(Cc2ccc3c(c2)OCO3)CC1,inconclusive: -31.5%
11,COc1ccc2[nH]c(C)c(CCN3C(=O)C4C5C=CC(C5)C4C3=O)c2c1 (stereo unspecified),inconclusive: -48.3%
12,COc1ccc(N2CCN(C(=O)c3ccc(CNS(=O)(=O)c4ccc(C)cc4)cc3)CC2)cc1,inconclusive: -46.4%
13,O=C1OC(c2cccs2)=N/C1=C/c1ccc(-c2cccc(C(=O)O)c2)o1,inactive: 26.3%
14,COCCCNCCCCOc1ccc(Br)cc1Cl,inconclusive: -32.3%
15,COC(=O)C[C@H]1C[C@H]2c3cc(NC(=O)CC4CC4)ccc3O[C@H]2[C@H](CO)O1,inactive: 21.9%
16,O=C1/C(=C/c2ccncc2)CCC/C1=C\c1ccncc1,inconclusive: -44.1%
17,CCOC(=O)C1CCCN(C(=O)c2ccc(Cn3c(=S)[nH]c4cc(C(=O)OC)ccc4c3=O)cc2)C1 (stereo unspecified),inactive: -1.61%
18,O=S(=O)(c1ccc(Cl)cc1)N1CCC(O)(CN2CCN(Cc3ccccc3)CC2)CC1,active: -52.9%
